Reference: paper PMC8583203, “DisA Restrains the Processing and Cleavage of Reversed Replication Forks by the RuvAB-RecU Resolvasome”
These are yes or no findings as the source states them, for the method shown. Some binding calls cover weakened binding; strength is not graded here. Blank lines part the entries; values can stand above or below the binder they belong to.

What was measured:
Assay in all cases: two-hybrid; bacterial adenylate cyclase-based two-hybrid (BACTH) in E. coli BTH101; T18 and T25 fusions at the N- or C-terminus co-transformed pairwise; serial dilutions spotted on LB plates with IPTG and X-Gal, 25 °C, 3-4 days; blue colour means interaction
RuvA = target: T1, RuvA (Bacillus subtilis, UniProt O05392 1-201)
T1 sequence: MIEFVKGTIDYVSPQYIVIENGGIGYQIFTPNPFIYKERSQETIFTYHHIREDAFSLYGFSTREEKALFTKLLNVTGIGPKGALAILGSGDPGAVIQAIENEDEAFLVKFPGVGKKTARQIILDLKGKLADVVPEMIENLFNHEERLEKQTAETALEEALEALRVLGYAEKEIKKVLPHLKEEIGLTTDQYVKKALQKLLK

RecU = target: T2, RecU (Bacillus subtilis, UniProt P39792 1-206)
T2 sequence: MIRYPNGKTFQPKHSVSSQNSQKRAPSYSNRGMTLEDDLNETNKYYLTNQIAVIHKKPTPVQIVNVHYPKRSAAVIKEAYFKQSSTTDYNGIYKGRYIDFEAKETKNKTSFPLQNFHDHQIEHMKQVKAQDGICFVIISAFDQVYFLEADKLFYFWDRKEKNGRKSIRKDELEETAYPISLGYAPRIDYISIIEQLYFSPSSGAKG

DisA = target: T3, DisA (Bacillus subtilis, UniProt P37573 1-360)
T3 sequence: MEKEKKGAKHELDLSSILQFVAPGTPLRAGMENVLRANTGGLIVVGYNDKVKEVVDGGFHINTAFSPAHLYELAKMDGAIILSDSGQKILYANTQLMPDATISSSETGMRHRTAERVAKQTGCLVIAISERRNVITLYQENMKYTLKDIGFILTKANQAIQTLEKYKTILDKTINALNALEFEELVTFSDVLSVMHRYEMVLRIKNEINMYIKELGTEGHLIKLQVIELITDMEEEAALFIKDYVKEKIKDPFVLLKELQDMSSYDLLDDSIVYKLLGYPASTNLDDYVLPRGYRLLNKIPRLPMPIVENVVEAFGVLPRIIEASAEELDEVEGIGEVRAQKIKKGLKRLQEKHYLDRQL

RuvB (Bacillus subtilis) = target: T4, RuvB (Bacillus subtilis) (UniProt O32055)
T4 sequence: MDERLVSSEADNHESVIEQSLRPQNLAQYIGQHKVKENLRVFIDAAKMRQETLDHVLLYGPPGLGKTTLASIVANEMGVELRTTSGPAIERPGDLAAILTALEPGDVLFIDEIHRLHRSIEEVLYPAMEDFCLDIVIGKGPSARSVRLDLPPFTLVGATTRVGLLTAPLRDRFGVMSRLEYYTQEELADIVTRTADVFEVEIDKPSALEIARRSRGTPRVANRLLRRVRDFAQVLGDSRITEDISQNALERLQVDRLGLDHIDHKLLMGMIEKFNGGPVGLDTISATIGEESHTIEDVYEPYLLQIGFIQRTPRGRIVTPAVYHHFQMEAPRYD

binding (RuvA): binds
B1: RuvA (protein, UniProt O05392 1-201)
chain: T1 sequence

binding (RecU): binds | binding (DisA): no binding
B2: RecU (protein, UniProt P39792 1-206)
chain: T2 sequence

binding (RuvB (Bacillus subtilis)): binds
B3: RuvB (protein, UniProt O32055 1-334)
chain: T4 sequence

binding (RuvB (Bacillus subtilis)): binds
B4: DisA ΔC290 (domain or fragment, UniProt P37573 1-290)
chain: MEKEKKGAKHELDLSSILQFVAPGTPLRAGMENVLRANTGGLIVVGYNDKVKEVVDGGFHINTAFSPAHLYELAKMDGAIILSDSGQKILYANTQLMPDATISSSETGMRHRTAERVAKQTGCLVIAISERRNVITLYQENMKYTLKDIGFILTKANQAIQTLEKYKTILDKTINALNALEFEELVTFSDVLSVMHRYEMVLRIKNEINMYIKELGTEGHLIKLQVIELITDMEEEAALFIKDYVKEKIKDPFVLLKELQDMSSYDLLDDSIVYKLLGYPASTNLDDYVL
